# From US8592383B2, “Cycloalkyl-fused tetrahydroquinolines as CRTH2 receptor modulators” (Merck Sharp & Dohme Corp., priority 2011, dated 2013)
# Biological target: T1, hCRTH2 (Homo sapiens, UniProt Q9Y5Y4)
# T1 sequence (Q9Y5Y4 1-395): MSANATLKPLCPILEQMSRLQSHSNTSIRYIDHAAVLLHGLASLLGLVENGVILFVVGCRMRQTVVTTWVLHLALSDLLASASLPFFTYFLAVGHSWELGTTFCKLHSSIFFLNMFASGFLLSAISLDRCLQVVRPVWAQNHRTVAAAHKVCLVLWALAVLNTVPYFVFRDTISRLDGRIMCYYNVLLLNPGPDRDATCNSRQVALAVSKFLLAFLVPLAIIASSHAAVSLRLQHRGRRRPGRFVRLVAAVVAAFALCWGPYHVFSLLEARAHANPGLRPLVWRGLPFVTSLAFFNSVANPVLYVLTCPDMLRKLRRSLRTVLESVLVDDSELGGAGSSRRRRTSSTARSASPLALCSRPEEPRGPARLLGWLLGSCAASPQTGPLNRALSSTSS
# Assay: biochemical
# Conditions: Ki (nM), Table A; Radioligand Binding Assay A, [3H]PGD2, HEK-hCRTH2 membranes
row,Ki [nM],Structure (SMILES)
1,20.1 to 200,"O=C(O)CCC(=O)N(C1CCC1)[C@@H]1c2ccccc2N(C(=O)c2cc(F)cc(F)c2)[C@@H]2CCC[C@@H]21 (single isomer, unassigned) [17DC, 4-[cyclobutyl[cis,cis-4-(3,5-difluorobenzoyl)-2,3,3a,4,9,9a-hexahydro-1H-cyclopenta[b]quinolin-9-yl]amino]-4-oxobutanoic acid]"
2,20.1 to 200,"O=C(O)CCC(=O)N(C1CCC1)C1c2ccccc2N(C(=O)C2CC2c2ccccc2)C2CCCC21 (single isomer, unassigned) [17DD, 4-[cyclobutyl[cis,cis-2,3,3a,4,9,9a-hexahydro-4-[(trans-2-phenylcyclopropyl)carbonyl]-1H-cyclopenta[b]quinolin-9-yl]amino]-4-oxobutanoic acid]"
3,5.1 to 20,"O=C(O)CCC(=O)N(C1CCC1)C1c2ccccc2N(C(=O)C2CC2c2ccccc2)C2CCCC21 (single isomer, unassigned) [17DE, 4-[cyclobutyl[cis,cis-2,3,3a,4,9,9a-hexahydro-4-[(trans-2-phenylcyclopropyl)carbonyl]-1H-cyclopenta[b]quinolin-9-yl]amino]-4-oxobutanoic acid]"
4,201 to 7500,"O=C(O)CCC(=O)N(C1CC1)[C@H]1c2cc(F)ccc2N(C(=O)c2cccc(F)c2)[C@H]2CCC[C@H]21 (single isomer, unassigned) [17DG]"
5,1 to 5,"O=C(O)CCC(=O)N(C1CC1)C1c2ccccc2N(C(=O)c2cccc(Oc3ccccc3)c2)C2CCCC21 (single isomer, unassigned) [18M, 4-[cyclopropyl[cis, cis-2,3,3a,4,9,9a-hexahydro-4-(3-phenoxybenzoyl)-1H-cyclopenta[b]quinolin-9-yl]amino]-4-oxobutanoic acid]"
6,5.1 to 20,"O=C(O)COC(=O)N(C1CC1)C1c2ccccc2N(C(=O)OCc2cccs2)C2CCCC21 (single isomer, unassigned) [22E, 4-(2-thienylmethyl) cis, cis-[[(carboxymethoxy)carbonyl]cyclopropylamino]-1,2,3,3a,9,9a-hexahydro-4H-cyclopenta[b]quinoline-4-carboxylate]"
7,5.1 to 20,"O=C(O)CCC(=O)N(C1CC1)C1c2cc(F)c(Cl)cc2N(C(=O)OCc2ccc(F)cc2F)C2CCCC21 (single isomer, unassigned) [22F, 4-[(2,4-difluorophenyl)methyl] cis, cis-[(3-carboxy-1-oxopropyl)cyclopropylamino]-6-chloro-7-fluoro-1,2,3,3a,9,9a-hexahydro-4H-cyclopenta[b]quinoline-4-carboxylate]"
8,5.1 to 20,"O=C(O)CCC(=O)N(C1CC1)C1c2cc(F)c(Cl)cc2N(C(=O)OCc2cccc(OC(F)(F)F)c2)C2CCCC21 (single isomer, unassigned) [22G, 4-[[3-(trifluoromethoxy)phenyl]methyl] cis, cis-[(3-carboxy-1-oxopropyl)cyclopropylamino]-6-chloro-7-fluoro-1,2,3,3a,9,9a-hexahydro-4H-cyclopenta[b]quinoline-4-carboxylate]"
9,5.1 to 20,"O=C(O)CCC(=O)N(C1CC1)C1c2ccccc2N(C(=O)OCc2ccc(OC(F)(F)F)cc2)C2CCCC21 (single isomer, unassigned) [22K, 4-[[4-(trifluoromethoxy)phenyl]methyl] cis, cis-[(3-carboxy-1-oxopropyl)cyclopropylamino]-1,2,3,3a,9,9a-hexahydro-4H-cyclopenta[b]quinoline-4-carboxylate]"
10,5.1 to 20,"O=C(O)CCC(=O)N(C1CC1)C1c2ccccc2N(C(=O)OCc2ccc(F)c(F)c2)C2CCCC21 (single isomer, unassigned) [22M, 4-[(3,4-difluorophenyl)methyl] cis, cis-[(3-earboxy-1-oxopropyl)cyclopropylamino]-1,2,3,3a,9,9a-hexahydro-4H-cyclopenta[b]quinoline-4-carboxylate]"

# Further lines, the compound ahead of its results:
row,Structure (SMILES),Ki [nM]
1,"O=C(O)CCC(=O)N(C1CCC1)C1c2ccccc2N(C(=O)c2ccc(F)cc2)C2CCCC21 (single isomer, unassigned) [17DB, 4-[cyclobutyl[cis,cis-4-(4-fluorobenzoyl)-2,3,3a,4,9,9a-hexahydro-1H-cyclopenta[b]quinolin-9-yl]amino]-4-oxobutanoic acid]",20.1 to 200
2,"O=C(O)CCC(=O)N(C1CC1)[C@H]1c2cc(F)ccc2N(C(=O)c2cccc(OC(F)(F)F)c2)[C@H]2CCC[C@H]21 (single isomer, unassigned) [17DF]",201 to 7500
3,"O=C(O)CCC(=O)N(C1CC1)C1c2ccccc2N(C(=O)Cc2ccc(OC(F)(F)F)cc2)C2CCCC21 (single isomer, unassigned) [17DH, 4-[cyclopropyl[cis,cis-2,3,3a,4,9,9a-hexahydro-4-[[4-(trifluoromethoxy)phenyl]acetyl]-1H-cyclopenta[b]quinolin-9-yl]amino]-4-oxobutanoic acid]",5.1 to 20
4,"O=C(O)CCC(=O)N(C1CC1)[C@@H]1c2ccc(Cl)cc2N(C(=O)C2Cc3ccccc3C2)[C@@H]2CCC[C@@H]21 (single isomer, unassigned) [17DK, 4-[[cis,cis-6-chloro-4-[(2,3-dihydro-1H-inden-2-yl)carbonyl]-2,3,3a,4,9,9a-hexahydro-1H-cyclopenta[b]quinolin-9-yl]cyclopropylamino]-4-oxobutanoic acid]",5.1 to 20
5,"O=C(O)CCC(=O)N(C1CC1)C1c2ccccc2N(C(=O)CCc2ccc(OC(F)(F)F)cc2)C2CCCC21 (single isomer, unassigned) [17Di, 4-[cyclopropyl[cis,cis-2,3,3a,4,9,9a-hexahydro-4-[1-oxo-3-[4-(trifluoromethoxy)phenyl]propyl]-1H-cyclopenta[b]quinolin-9-yl]amino]-4-oxobutanoic acid]",20.1 to 200
6,"O=C(O)CCC(=O)N(C1CC1)C1c2ccccc2N(C(=O)c2ccc(-c3ccccc3)cc2)C2CCCC21 (single isomer, unassigned) [18L, 4-[[cis, cis-4-([1,1′-biphenyl]-4-ylcarbonyl)-2,3,3a,4,9,9a-hexahydro-1H-cyclopenta[b]quinolin-9-yl]cyclopropylamino]-4-oxobutanoic acid]",1 to 5
7,"O=C(O)CCC(=O)N(C1CC1)C1c2ccccc2N(C(=O)c2cccc(-c3cncs3)c2)C2CCCC21 (single isomer, unassigned) [18S, 4-[cyclopropyl[cis, cis-2,3,3a,4,9,9a-hexahydro-4-[3-(5-thiazolyl)benzoyl]-1H-cyclopenta[b]quinolin-9-yl]amino]-4-oxobutanoic acid]",5.1 to 20
8,"O=C(O)CCC(=O)N(C1CC1)C1c2ccccc2N(C(=O)c2cccc(-c3ccnnc3)c2)C2CCCC21 (single isomer, unassigned) [18T, 4-[cyclopropyl[cis, cis-2,3,3a,4,9,9a-hexahydro-4-[3-(4-pyridazinyl)benzoyl]-1H-cyclopenta[b]quinolin-9-yl]amino]-4-oxobutanoic acid]",20.1 to 200
9,"CCN(C(=O)CCC(=O)O)C1c2ccccc2N(C(=O)OCc2cc(F)cc(F)c2)C2CCCC12 (single isomer, unassigned) [22A, 4-[(3,5-difluorophenyl)methyl] cis, cis-[(3-carboxy-1-oxopropyl)ethylamino]-1,2,3,3a,9,9a-hexahydro-4H-cyclopenta[b]quinoline-4-carboxylate]",201 to 7500
10,"O=C(O)COC(=O)N(C1CC1)C1c2ccccc2N(C(=O)OCc2ccc(F)cc2F)C2CCCC21 (single isomer, unassigned) [22D, 4-[(2,4-difluorophenyl)methyl] cis, cis-[[(carboxymethoxy)carbonyl]cyclopropylamino]-1,2,3,3a,9,9a-hexahydro-4H-cyclopenta[b]quinoline-4-carboxylate]",1 to 5
11,"O=C(O)CCC(=O)N(C1CC1)C1c2cc(F)c(Cl)cc2N(C(=O)OCc2ccccn2)C2CCCC21 (single isomer, unassigned) [22H, 4-(2-pyridinylmethyl) cis, cis-[(3-carboxy-1-oxopropyl)cyclopropylamino]-6-chloro-7-fluoro-1,2,3,3a,9,9a-hexahydro-4H-cyclopenta[b]quinoline-4-carboxylate]",5.1 to 20
12,"O=C(O)CCC(=O)N(C1CC1)C1c2ccccc2N(C(=O)OCc2ccc(OC(F)(F)F)cc2)C2CCCC21 (single isomer, unassigned) [22J, 4-[[4-(trifluoromethoxy)phenyl]methyl] cis, cis-[(3-carboxy-1-oxopropyl)cyclopropylamino]-1,2,3,3a,9,9a-hexahydro-4H-cyclopenta[b]quinoline-4-carboxylate]",201 to 7500
13,"O=C(O)CCC(=O)N(C1CC1)C1c2ccccc2N(C(=O)OC2Cc3ccccc3C2)C2CCCC21 (single isomer, unassigned) [22L, 4-(2,3-dihydro-1H-inden-2-yl) cis, cis-[(3-carboxy-1-oxopropyl)cyclopropylamino]-1,2,3,3a,9,9a-hexahydro-4H-cyclopenta[b]quinoline-4-carboxylate]",5.1 to 20
14,"O=C(O)CCC(=O)N(C1CC1)C1c2ccccc2N(C(=O)OCc2cc(F)cc(F)c2)C2CCCC21 (single isomer, unassigned) [22N, 4-[(3,5-difluorophenyl)methyl] cis, cis-[(3-carboxy-1-oxopropyl)cyclopropylamino]-1,2,3,3a,9,9a-hexahydro-4H-cyclopenta[b]quinoline-4-carboxylate]",20.1 to 200
15,"O=C(O)CCC(=O)N(C1CC1)C1c2ccccc2N(C(=O)OCc2ccc(C(F)(F)F)cc2)C2CCCC21 (single isomer, unassigned) [22O, 4-[[4-(trifluoromethyl)phenyl]methyl] cis, cis-[(3-carboxy-1-oxopropyl)cyclopropylamino]-1,2,3,3a,9,9a-hexahydro-4H-cyclopenta[b]quinoline-4-carboxylate]",20.1 to 200
